Data: publication PMC3901001, “Activation-triggered subunit exchange between CaMKII holoenzymes facilitates the spread of kinase activity” (eLife, 2014)

How the values were obtained:
[1] = target: the molecule itself; test: SEC; gel filtration of the purified, unactivated protein (25 mM Tris pH 8.0, 150 mM KCl, 2 mM TCEP, 10% glycerol)
[2] = target: T1, Calmodulin (from Gallus gallus), Ca2+-bound (Gallus gallus, UniProt P62149); test: dynamic light scattering; conditions of the mixing experiments, 37°C, 1 hr: CaMKII^T286D with ATP; wild type with Ca2+/CaM and ATP; conditions: both partners purified
T1 construct: calmodulin, Gallus gallus; also called CaM; Ca^2+/CaM; source: expressed using a pET-15b vector, purified as described previously (Putkey and Waxham, 1996)

B1: full-length human α isoform of CaMKII (CaMKIIα), wild type (enzyme)
chain: not shown
modifications: biotin on the Avitag (BirA); Alexa 488 or Alexa 594 C5-maleimide at Cys 280
notes: Dodecameric holoenzyme; unphosphorylated as purified; also called wild-type CaMKII; wild-type holoenzyme; source: E. coli Tuner (DE-3)pLysS with a plasmid for λ phosphatase, purified (Ni-NTA, Q-FF, gel filtration); not shown: SUMO, N-terminal, cleaved; Avitag, C-terminal, kept
B1 was tested. Which “stoichiometry N” value [1] did it give?
The value was 12.

Does B1 bind [2]?
Result: binds
